Measurements: the supplement of paper PMC4967469
The IC50 comes from the fitted curve, where viability falls to half of the control; a limit (>, <) means that the fit lies beyond the doses tested. AUC is the area under the same curve over the 256-fold range up to the top dose, as a fraction; it is 1 without any effect and falls as sensitivity rises. For part of these data: The top dose, if marked as inferred, was derived from the fitted curves, not read from the paper.

Columns and labels:
Experiment in all cases: Viability of human cancer cell lines after 72 h of drug (GDSC screen)
[1] = compound: CO[C@@]12[C@H](COC(N)=O)C3=C(C(=O)C(C)=C(N)C3=O)N1C[C@@H]1N[C@@H]12 [Mitomycin C]; conditions: top dose 16 µM
Protocol: (§1)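 Human cancer cell lines in 384-well plates, medium with 10% serum, drug for 72 h over a 256-fold dose range (nine 2-fold or five 4-fold steps up to the top dose). Adherent lines were fixed and stained with the nucleic acid dye Syto60, suspension lines read with resazurin; signal relative to control wells, capped at 0 and 100%. One two-parameter sigmoid per drug and line, fitted in a mixed model over all curves with the slope shared within a line.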

[2] = compound: CO[C@@H]1[C@H](N(C)C(=O)c2ccccc2)C[C@H]2O[C@]1(C)n1c3ccccc3c3c4c(c5c6ccccc6n2c5c31)C(=O)NC4 [Midostaurin]; conditions: top dose 0.512 µM; top dose inferred
Protocol: as §1

[3] = compound: O=C(O)CNC(=O)c1c(O)c2ccccc2n(Cc2ccccc2)c1=O [IOX2]; conditions: top dose 0.1 µM; top dose inferred
Protocol: as §1

[4] = compound: Cc1ccc(C(=O)Nc2cccc(C(F)(F)F)c2)cc1Nc1nc(-c2cccnc2)nc2c1cnn2C [NVP-BHG712]; conditions: top dose 10.24 µM; top dose inferred
Protocol: as §1

[5] = compound: COc1cc(Nc2c(C#N)cnc3cc(OCCCN4CCN(C)CC4)c(OC)cc23)c(Cl)cc1Cl [Bosutinib]; conditions: top dose 2 µM
Protocol: as §1

Row | Cell Line | AUC [1] | IC50 [1] [nM] | AUC [2] | IC50 [2] [nM] | AUC [3] | IC50 [3] [nM] | AUC [4] | IC50 [4] [nM] | AUC [5] | IC50 [5] [nM]
1 | HPAC (pancreas, adherent) | 0.412 | 519 | 0.863 | > 512 | 0.976 | > 100 | 0.789 | 6710 |  | 
2 | CAMA-1 (breast, adherent) | 0.406 | 517 | 0.96 | > 512 | 0.958 | > 100 | 0.963 | > 10200 |  | 
3 | KOSC-2 (head and neck, adherent) | 0.555 | 1430 | 0.933 | > 512 | 0.977 | > 100 | 0.982 | > 10200 |  | 
4 | NCI-H1915 (large cell lung carcinoma, adherent) | 0.553 | 1400 | 0.953 | > 512 | 0.984 | > 100 | 0.884 | > 10200 |  | 
5 | J82 (bladder, adherent) | 0.038 | < 62.5 | 0.951 | > 512 | 0.987 | > 100 | 0.988 | > 10200 |  | 
6 | GCT (soft tissue, adherent) | 0.732 | 4330 | 0.903 | > 512 | 0.977 | > 100 | 0.989 | > 10200 |  | 
7 | BCPAP (thyroid, adherent) | 0.299 | 289 | 0.822 | 263 | 0.988 | > 100 | 0.838 | 6010 |  | 
8 | H2803 (mesothelioma, adherent) | 0.533 | 1250 | 0.819 | 354 | 0.933 | > 100 | 0.946 | > 10200 |  | 
9 | PCI-38 (head and neck, adherent) | 0.428 | 634 | 0.953 | > 512 | 0.966 | > 100 | 0.931 | > 10200 |  | 
10 | MOLM-13 (acute myeloid leukaemia, suspension) | 0.277 | 244 |  |  | 0.984 | > 100 | 0.637 | 1490 | 0.886 | 1970
11 | HOP-92 (large cell lung carcinoma, adherent) | 0.611 | 2130 |  |  | 0.981 | > 100 | 0.985 | > 10200 | 0.878 | > 2000
12 | EKVX (lung adenocarcinoma, adherent) | 0.52 | 1200 |  |  | 0.965 | > 100 | 0.959 | > 10200 | 0.894 | > 2000
13 | CAPAN-1 (pancreas, adherent) | 0.2 | 114 |  |  | 0.969 | > 100 | 0.914 | > 10200 | 0.877 | > 2000
14 | BICR31 (head and neck, adherent) | 0.401 | 534 | 0.859 | 432 |  |  | 0.985 | > 10200 |  | 
15 | MDA-MB-468 (breast, adherent) | 0.331 |  |  |  | 0.987 | > 100 | 0.978 | > 10200 | 0.943 | > 2000
16 | H3255 (lung adenocarcinoma, adherent) | 0.387 | 459 |  |  | 0.982 | > 100 | 0.966 | > 10200 | 0.695 | 496
17 | Caov-3 (ovary, adherent) | 0.236 | 193 | 0.943 | > 512 |  |  | 0.957 | > 10200 |  | 
18 | RPMI-8226 (myeloma, suspension) | 0.535 | 1230 |  |  | 0.986 | > 100 | 0.972 | > 10200 | 0.879 | 1590
19 | BxPC-3 (pancreas, adherent) | 0.442 | 682 |  |  | 0.982 | > 100 | 0.832 | 7680 | 0.975 | > 2000
20 | SK-MEL-2 (melanoma, adherent) | 0.702 | 3810 |  |  | 0.986 | > 100 | 0.987 | > 10200 | 0.802 | 1030
21 | HCC2998 (large intestine, adherent) | 0.243 | 186 |  |  | 0.984 | > 100 | 0.908 | > 10200 | 0.987 | > 2000
22 | HuH-7 (liver, adherent) | 0.609 |  |  |  | 0.984 | > 100 | 0.959 | > 10200 | 0.977 | > 2000
23 | KM12 (large intestine, adherent) | 0.547 | 1360 |  |  | 0.974 | > 100 | 0.872 | > 10200 | 0.968 | > 2000
24 | DAN-G (pancreas, adherent) | 0.673 | 2840 |  |  | 0.991 | > 100 | 0.971 | > 10200 | 0.988 | > 2000
25 | SNU-475 (liver, adherent) | 0.478 | 877 | 0.982 | > 512 |  |  | 0.947 | > 10200 |  | 
26 | CCRF-CEM (lymphoblastic leukaemia, suspension) | 0.1 | 68.3 |  |  | 0.99 | > 100 | 0.714 | 2290 | 0.82 | 918
27 | OVCAR-5 (ovary, adherent) | 0.397 |  |  |  | 0.977 | > 100 | 0.942 | > 10200 | 0.938 | > 2000
